About 14,000 (4.5%) of roughly 310,000 compounds showed an effect of 50% or more. The effect is printed as a negative number. The list shows a part of the results.
Target: human ether-à-go-go-related gene (hERG) potassium channel (human, UniProt Q12809)
Assay: primary screen, population patch clamp on CHO cells stably expressing hERG
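Also: peak tail current of the secondary pulse compared with the same well before compound.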

human ether-à-go-go-related gene (hERG) potassium channel, sequence (Q12809 whole entry, looked up): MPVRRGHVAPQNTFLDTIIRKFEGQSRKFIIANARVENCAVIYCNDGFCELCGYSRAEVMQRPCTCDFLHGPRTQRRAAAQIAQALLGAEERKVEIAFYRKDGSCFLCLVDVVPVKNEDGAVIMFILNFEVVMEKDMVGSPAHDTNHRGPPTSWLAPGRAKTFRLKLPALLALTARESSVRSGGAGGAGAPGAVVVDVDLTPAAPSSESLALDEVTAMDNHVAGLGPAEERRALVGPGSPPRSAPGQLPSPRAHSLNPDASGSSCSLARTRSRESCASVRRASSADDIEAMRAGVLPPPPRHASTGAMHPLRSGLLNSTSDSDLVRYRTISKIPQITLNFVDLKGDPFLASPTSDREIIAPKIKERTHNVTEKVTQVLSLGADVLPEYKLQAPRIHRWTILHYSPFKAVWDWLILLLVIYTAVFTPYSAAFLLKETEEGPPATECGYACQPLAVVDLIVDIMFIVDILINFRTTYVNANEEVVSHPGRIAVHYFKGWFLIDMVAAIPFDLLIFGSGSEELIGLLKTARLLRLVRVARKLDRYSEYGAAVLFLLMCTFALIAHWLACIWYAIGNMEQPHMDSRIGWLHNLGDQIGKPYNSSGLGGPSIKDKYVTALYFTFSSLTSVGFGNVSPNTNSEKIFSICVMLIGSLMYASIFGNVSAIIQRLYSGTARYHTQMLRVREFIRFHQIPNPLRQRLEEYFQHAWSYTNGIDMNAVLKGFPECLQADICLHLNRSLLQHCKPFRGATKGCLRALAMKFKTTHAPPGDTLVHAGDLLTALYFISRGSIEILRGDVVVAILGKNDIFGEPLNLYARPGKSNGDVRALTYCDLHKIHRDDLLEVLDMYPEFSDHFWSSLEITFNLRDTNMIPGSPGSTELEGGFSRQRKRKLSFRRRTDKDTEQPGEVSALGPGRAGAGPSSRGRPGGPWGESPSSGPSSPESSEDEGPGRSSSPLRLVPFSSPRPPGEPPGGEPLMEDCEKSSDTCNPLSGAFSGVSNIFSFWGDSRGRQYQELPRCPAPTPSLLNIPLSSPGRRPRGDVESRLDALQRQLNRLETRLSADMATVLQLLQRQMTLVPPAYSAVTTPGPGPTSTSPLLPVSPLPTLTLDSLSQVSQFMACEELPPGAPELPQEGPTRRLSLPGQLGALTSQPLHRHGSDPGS

| Structure (SMILES) | hERG current change (%, negative = inhibition) at 10uM |
| --- | --- |
| O=C(CCN1C(=O)c2ccccc2S1(=O)=O)Nc1ccc(F)c(F)c1F | -2.68% |
| Cn1nc(-c2ccccc2)c(-c2nc(-c3cccc(Cl)c3)no2)c1Cl | 4.96% |
| COc1cc([N+](=O)[O-])cc(/C=N/NC(=O)C(C)Nc2ccccc2C)c1O (stereo not drawn) | 19.3% |
| O=C(Nc1ccc2c(c1)CCC2)c1ccccc1Br | -12.9% |
| Cc1ccc(NC(=O)CSc2n[nH]c(-c3cccnc3)n2)cc1Cl | -25.5% |
| O=C(CSc1nnc(CNC(=O)c2ccco2)o1)Nc1ccc(Br)cc1 | -19.7% |
| COc1ccc(N(C)S(=O)(=O)c2cccc3nsnc23)cc1 | 9.59% |
| COc1ccccc1-c1noc(CCC(=O)NC2CCCC2)n1 | 13.3% |
| COc1ccc(/C(N)=N/OC(=O)c2ccc(C)c([N+](=O)[O-])c2)cc1OC | 10.1% |
| N#Cc1ccccc1OCC(=O)Nc1ccc2c(c1)OCCCO2 | 3.08% |
| Cc1ccc(Cn2nnnc2CN2CCC(O)(c3ccc(F)cc3)CC2)cc1 | -7.64% |
| O=P(O)(CCc1ccccn1)CN1CCOCC1 | 6.28% |
| Cc1cc(=O)oc2cc(NC(=S)NCc3ccccn3)ccc12 | -6.91% |
| Cc1ccc2nc(SCC(=O)N/N=C/c3ccco3)cc(C)c2c1 | 10.4% |
| O=[N+]([O-])c1ccc2c(c1)C(O)n1nc(-c3ccccc3)nc1S2 (stereo not drawn) | 5.13% |
| Cc1cccc(/N=C/c2ccccn2)n1 | 2.53% |
| COc1ccc(CNC(=O)CNC(=O)CNS(=O)(=O)c2ccc(C)c(C)c2)cc1 | 13.2% |
| O=C(NNC(=O)c1ccc(-c2ccccc2)cc1)Nc1ccc(F)cc1F | 19.8% |
| CCc1ccc(NC(=O)c2cc(-c3ccc(OC)cc3)on2)cc1 | -0.467% |
| O=C(NCc1cccc(C(F)(F)F)c1)c1cccc(S(=O)(=O)N2CCN(Cc3ccccc3)CC2)c1 | 11.9% |
| COc1ccccc1NC(=O)CSc1nccn1Cc1ccccc1 | -8.03% |
| CCN1CCN(c2ccc(N3CCN(C(=O)c4ccc(Br)o4)CC3)nn2)CC1 | -71.5% |
| N#CCCn1cc(C(=O)Nc2ccc([N+](=O)[O-])cc2)c(-c2cccs2)n1 | -59.7% |

| Structure (SMILES) | hERG current change (%, negative = inhibition) at 10uM |
| --- | --- |
| O=C(CC1C(=O)NCCN1C(=O)c1ccc(Cl)cc1)Nc1ccc(F)cc1 (stereo not drawn) | -12.2% |
| CC(=O)NC(NC(C)=O)c1cccc(OCc2ccccc2)c1 | 9.33% |
| COc1cc(C(=O)Nc2scc(-c3ccc(C)cc3)c2C(=O)O)cc(OC)c1OC | 27.2% |
| COc1ccc(Nc2c(-c3ccc(C)cc3)nc3cnccn23)cc1 | -24.5% |
| Cc1cccc(NC(=O)COC(=O)c2ccccn2)c1 | 19.2% |
| CCOC(=O)C1=NOC(C(=O)NN(C)c2ncc(C(F)(F)F)cc2Cl)C1 (stereo not drawn) | 5.69% |
| COc1ccc(C2c3c(-c4cc(Cl)c(C)cc4O)n[nH]c3C(=O)N2Cc2cccnc2)cc1OC (stereo not drawn) | 7.02% |
| CC(C)CC1NC(=O)N(CC(=O)Nc2ccccc2-c2ccccc2)C1=O (stereo not drawn) | -41% |
| CCC(=O)Nc1ccc(N2CCN(C(=O)c3cccs3)CC2)cc1 | -7.15% |
| Cc1nn(CC(=O)N2CCCC2)c(=O)c2nn(-c3ccccc3)c(C)c12 | 9.64% |
| CN(C)c1ccc(/C=N/NC(=O)C[n+]2ccccc2)cc1.[Cl-] | 15.5% |
| CN1CCN(C(=O)C2=C[C@@H](c3ccccc3)C[C@@H](OCc3ccc(CO)cc3)O2)CC1 | -13.2% |
| O=C(Nc1ccc(Oc2ccc3ccccc3c2)cc1)c1ccco1 | 4.72% |
| COc1cc2c(cc1NC(=O)c1cccc(Br)c1)CCCC2 | -1.68% |
| O=C(O)C1C2C=CC(C2)C1C(=O)NCCc1ccccc1 (stereo not drawn) | 4.05% |
| O=C(COC(=O)c1cccnc1SC(F)F)NC1CC1 | -9.64% |
| COc1cc(-c2cccs2)cc(=O)c2c(C)oc(C)c12 | -8.27% |
| COc1cc(OC)c(C2=NOC(C(=O)N3CCN(C(=O)c4ccco4)CC3)C2)cc1Cl (stereo not drawn) | -35.3% |
| CC(C)Sc1cc(Cl)nc(NC(=O)Nc2ccccc2)n1 | 20% |
| Cc1ccc(/C=N\Nc2nc3ccc(Cl)cc3[nH]2)o1 | -8.39% |
| COc1ccc(NC(=O)COC(=O)CCNS(=O)(=O)c2ccc(Cl)cc2)cc1 | -23.2% |
| O=C(Nc1ccc2nc(-c3ccco3)c(-c3ccco3)nc2c1)N1CCN(c2ccccn2)CC1 | -31.5% |
